The other results are listed elsewhere or left out. Sequences were assembled here from the parent chain. Values near 0.05 are background.
B1: TEV protease; numbered along this chain (parent)
chain: MGESLFKGPRDYNPISSSICHLTNESDGHTTSLYGIGFGPFIITNKHLFRRNNGTLVVQSLHGVFKVKDTTTLQQHLVDGRDMIIIRMPKDFPPFPQKLKFREPQREERICLVTTNFQTKSMSSMVSDTSCTFPSGDGIFWKHWIQTKDGQCGSPLVSTRDGFIVGIHSASNFTNTNNYFTSVPKNFMELLTNQEAQQWVSGWRLNADSVLWGGHKVFMVKPEEPFQPVKEATQL

Variants of: B1
Assay: raw area under fraction-flipped curve 0-4 h after induction (AUC4h, not background-subtracted), DNA-recorder readout of cleavage of the substrate (dimensionless); higher = more cleavage of the substrate by the protease variant
Conditions: temperature: 34 °C; time window: 0-4 h after rhamnose induction
Protocol: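 In vivo DNA recorder in E. coli TOP10(DE3) ΔrhaA at 34 °C. Each TEVp single-site mutant (parent TEVp 0) is paired with a single-site variant of the 7-mer TEVs (canonical ENLYFQ|S). The substrate sits between flexible linkers in a Bxb1-sfGFP-TEVs-SsrA fusion, so cleavage stabilises Bxb1 and speeds flipping of a recombination array, read by NGS. The value is the raw area under the fraction-flipped curve over 0-4 h after rhamnose induction (AUC4h), with ≥20 reads per time point. It is not background-subtracted; inactive controls average about 0.047.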
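Note: Bxb1 expression induced with 0.2% (w/v) L-rhamnose at OD600 near 0.5, cultures sampled hourly, flipped fraction per protease–substrate barcode pair counted by paired-end Illumina sequencing.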

Variant	area with substrate ENAYFQS	area with substrate ENCYFQS	area with substrate ENDYFQS	area with substrate ENEYFQS	area with substrate ENGYFQS	area with substrate ENHYFQS	area with substrate ENIYFQS	area with substrate ENNYFQS	area with substrate ENPYFQS	area with substrate ENQYFQS	area with substrate ENRYFQS	area with substrate ENSYFQS	area with substrate ENTYFQS	area with substrate ENVYFQS	area with substrate ENWYFQS	area with substrate ENYYFQS	area with substrate ENFYFQS	area with substrate ENKYFQS	area with substrate ENMYFQS
MGESLFKGPRDYNPISSSICHLTNESDGHTTSLYGIGFGPFIITNKHLFRRNNGTLVVQSLHGVFKVKDTTTLQQHLVDGRDMIIIRMPKDFPPFPQKLKFREPQREERICLVTTNFQTKSMSSMVSDTSCTFPSGDGIFWKHWIQTKDGQCGSPLVSTRDGFIVGIHSASNFTNTNNYFTSVPCNFMELLTNQEAQQWVSGWRLNADSVLWGGHKVFMVKPEEPFQPVKEATQL [K185C]	0.0631	0.0582	0.0603	0.0615	0.0683	0.0625	0.105	0.0661	0.0596	0.0752	0.0509	0.0356	0.0789	0.0931	0.0364	0.0436			
MGESLFKGPRDYNPISSSICHLTNESDGHTTSLYGIGFGPFIITNKHLFRRNNGTLVVQSLHGVFKVKDTTTLQQHLVDGRDMIIIRMPKDFPPFPQKLKFREPQREERICLVTTNFQTKSMSSMVSDTSCTFPSGDGIFWKHWIQTKDGQCGSPLVSTRDGFIVGIHSASNFTNTNNYFTSVPMNFMELLTNQEAQQWVSGWRLNADSVLWGGHKVFMVKPEEPFQPVKEATQL [K185M]	0.0535	0.0639	0.0598	0.0586		0.0619	0.122	0.0498	0.0434	0.0603	0.0479	0.106		0.0874	0.0477	0.0508	0.0652	0.0594	
MGESLFKGPRDYNPISSSICHLTNESDGHTTSLYGIGFGPFIITNKHLFRRNNGTLVVQSLHGVFKVKDTTTLQQHLVDGRDMIIIRMPKDFPPFPQKLKFREPQREERICLVTTNFQTKSMSSMVSDTSCTFPSGDGIFWKHWIQTKDGQCGSPLVSTRDGFIVGIHSASNFTNTNNYFTSVPSNFMELLTNQEAQQWVSGWRLNADSVLWGGHKVFMVKPEEPFQPVKEATQL [K185S]	0.0561		0.0717		0.0649	0.0519							0.0536	0.0806			0.0288		0.0822
MGESLFKGPRDYNPISSSICHLTNESDGHTTSLYGIGFGPFIITNKHLFRRNNGTLVVQSLHGVFKVKDTTTLQQHLVDGRDMIIIRMPKDFPPFPQKLKFREPQREERICLVTTNFQTKSMSSMVSDTSCTFPSGDGIFWKHWIQTKDGQCGSPLVSTRDGFIVGIHSASNFTNTNNYFTSVPKNDMELLTNQEAQQWVSGWRLNADSVLWGGHKVFMVKPEEPFQPVKEATQL [F187D]	0.0605	0.0464	0.0651		0.0562	0.0509	0.0599			0.0439		0.0534	0.0526	0.05	0.0056		0.0468		
MGESLFKGPRDYNPISSSICHLTNESDGHTTSLYGIGFGPFIITNKHLFRRNNGTLVVQSLHGVFKVKDTTTLQQHLVDGRDMIIIRMPKDFPPFPQKLKFREPQREERICLVTTNFQTKSMSSMVSDTSCTFPSGDGIFWKHWIQTKDGQCGSPLVSTRDGFIVGIHSASNFTNTNNYFTSVPKNRMELLTNQEAQQWVSGWRLNADSVLWGGHKVFMVKPEEPFQPVKEATQL [F187R]	0.0462	0.0624	0.0598	0.0535	0.0594			0.0566		0.0511		0.0558	0.0655	0.0527		0.0487			
MGESLFKGPRDYNPISSSICHLTNESDGHTTSLYGIGFGPFIITNKHLFRRNNGTLVVQSLHGVFKVKDTTTLQQHLVDGRDMIIIRMPKDFPPFPQKLKFREPQREERICLVTTNFQTKSMSSMVSDTSCTFPSGDGIFWKHWIQTKDGQCGSPLVSTRDGFIVGIHSASNFTNTNNYFTSVPKNFNELLTNQEAQQWVSGWRLNADSVLWGGHKVFMVKPEEPFQPVKEATQL [M188N]	0.0488		0.0543	0.0691						0.0567		0.0618						0.07	0.0534
MGESLFKGPRDYNPISSSICHLTNESDGHTTSLYGIGFGPFIITNKHLFRRNNGTLVVQSLHGVFKVKDTTTLQQHLVDGRDMIIIRMPKDFPPFPQKLKFREPQREERICLVTTNFQTKSMSSMVSDTSCTFPSGDGIFWKHWIQTKDGQCGSPLVSTRDGFIVGIHSASNFTNTNNYFTSVPKNFSELLTNQEAQQWVSGWRLNADSVLWGGHKVFMVKPEEPFQPVKEATQL [M188S]	0.0603	0.0689	0.0445	0.038		0.0605	0.0796		0.0605	0.0444		0.0582	0.0733	0.0688		0.0588	0.0531	0.0483	
MGESLFKGPRDYNPISSSICHLTNESDGHTTSLYGIGFGPFIITNKHLFRRNNGTLVVQSLHGVFKVKDTTTLQQHLVDGRDMIIIRMPKDFPPFPQKLKFREPQREERICLVTTNFQTKSMSSMVSDTSCTFPSGDGIFWKHWIQTKDGQCGSPLVSTRDGFIVGIHSASNFTNTNNYFTSVPKNFMCLLTNQEAQQWVSGWRLNADSVLWGGHKVFMVKPEEPFQPVKEATQL [E189C]	0.0649	0.079	0.069	0.0593	0.0701		0.0999		0.0583	0.0601				0.051	0.0598		0.0592		0.0628
MGESLFKGPRDYNPISSSICHLTNESDGHTTSLYGIGFGPFIITNKHLFRRNNGTLVVQSLHGVFKVKDTTTLQQHLVDGRDMIIIRMPKDFPPFPQKLKFREPQREERICLVTTNFQTKSMSSMVSDTSCTFPSGDGIFWKHWIQTKDGQCGSPLVSTRDGFIVGIHSASNFTNTNNYFTSVPKNFMGLLTNQEAQQWVSGWRLNADSVLWGGHKVFMVKPEEPFQPVKEATQL [E189G]	0.0564	0.0665	0.0598	0.068	0.0616	0.038				0.0528	0.0589	0.0679	0.0637			0.0518	0.0622	0.0423	
